# Data published in the supplement of paper PMC10126150.
# Sequences with one replicate were seen in a single cluster, so their values are uncertain.
# System: ATP
# Assay: switch fluorescence ratio, 500 uM ATP over buffer (Cy3 cluster intensity, sum of 5 cycles each) (fold (ratio)); higher = stronger signal-on switching upon ATP binding; sequences stand for … in TCGTCGGCAGCGTCAGATGTGTATAAGAGACAGTTTTTTTTTTTTTTTTTTTTTTTTT…TC
# Conditions: aptamer strand: ATP DNA aptamer (quencher-CACCTGGGGGAGTATTGCGGAGGAAGG + anchor), 100 nM annealed; ATP concentration: 500 uM; one replicate
# Outline: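 Clusters with intensities outside 100-1000 RFU were excluded. The remaining Cy3-labelled switching-strand clusters on a modified Illumina MiSeq flow-cell had been annealed to 100 nM quencher-labelled ATP aptamer and imaged in selection buffer, then after 15 min with 500 uM ATP at 22 °C, for five cycles separated by NaOH stripping and re-annealing. The fluorescence ratio, averaged per switch-domain sequence, is each cluster's summed target-cycle Cy3 intensity over its summed buffer-cycle Cy3 intensity.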
# 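Note: ATP exposure 15 min at 22 °C before imaging.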
row,Sequence,switch fluorescence ratio
1,GTGGACGTTA,1.04
2,GTGGATAGAC,0.986
3,GTGGATCAGT,1.03
4,GTGGCAGAGT,1.01
5,GTGGCAGTCG,1.08
6,GTGGCATAGG,0.996
7,GTGGCCATGA,0.953
8,GTGGCCCCAT,0.982
9,GTGGCCGAAA,0.99
10,GTGGCCGGCC,0.968
11,GTGGCCTGTA,0.974
12,GTGGCGACGT,0.982
13,GTGGCTGAGA,0.999
14,GTGGCTTTGC,0.937
15,GTGGGACTCT,1.02
16,GTGGGCCCCG,1.03
17,GTGGGCCGCC,0.987
18,GTGGGGACGT,0.964
19,GTGGGGAGCA,0.95
20,GTGGGTGATG,0.989
21,GTGGGTGTAT,0.988
22,GTGGTAAGAA,0.96
23,GTGGTGAGGG,0.991
24,GTGGTGAGTT,0.966
25,GTGGTGTCCG,1.01

row,Sequence,switch fluorescence ratio
1,GTGGTTAAGG,0.959
2,GTGGTTATTA,0.993
3,GTGGTTCTAA,0.988
4,GTGGTTGGTC,1
5,GTGGTTTGG,1
6,GTGTAACCGA,1.04
7,GTGTAATGAT,1.01
8,GTGTACCTTA,1.03
9,GTGTAGCTAA,1.06
10,GTGTATAACG,1.05
11,GTGTATACGT,1.01
12,GTGTATGGAC,0.978
13,GTGTCATGGT,1
14,GTGTCATTGG,0.985
15,GTGTCCAGTA,1.02
16,GTGTCCCCAT,0.984
17,GTGTCCCCGA,0.993
18,GTGTCGAGCG,0.982
19,GTGTCGCGCT,1
20,GTGTCGGCTC,1
21,GTGTCTCTCC,1.06
22,GTGTGAAGTC,0.981
23,GTGTGATAAG,1.07
24,GTGTGCGCGA,1.01
25,GTGTGCGGTA,1.01

row,Sequence,switch fluorescence ratio
1,GTGTGCTACA,1.03
2,GTGTTAAACT,0.959
3,GTGTTACGAT,1.01
4,GTGTTAGCTC,0.948
5,GTGTTCCCGG,0.992
6,GTGTTCGTGG,1.03
7,GTGTTGATCG,0.982
8,GTGTTTAGCG,0.97
9,GTGTTTCACG,0.988
10,GTGTTTGAA,1.08
11,GTGTTTGATT,0.992
12,GTGTTTGGTC,0.944
13,GTTAAAAAGT,1.01
14,GTTAAACATT,1.03
15,GTTAAAGAAA,0.984
16,GTTAAATGA,0.999
17,GTTAAATTGA,0.988
18,GTTAAATTGC,0.988
19,GTTAACAGGG,1
20,GTTAACGCCC,1.03
21,GTTAACGGCC,1.01
22,GTTAAGATTA,1.03
23,GTTAAGGGCT,0.957
24,GTTAATCAGT,1.01
25,GTTAATCCAT,0.982

row,Sequence,switch fluorescence ratio
1,GTTACACCTG,1.02
2,GTTACAGGCT,0.989
3,GTTACCCCAA,1.12
4,GTTACCTGGG,1.41
5,GTTACGGCGC,1.09
6,GTTACGGGAA,1.02
7,GTTACGGGTC,0.991
8,GTTACTTAAC,1.1
9,GTTAGAGCCA,1.02
10,GTTAGATTTT,0.951
11,GTTAGTACTC,1.02
12,GTTAGTGTCG,0.928
13,GTTAGTTCTG,0.994
14,GTTAGTTTT,1.02
15,GTTATAAACA,0.989
16,GTTATACGAC,1.24
17,GTTATATGA,1.01
18,GTTATCGCAG,1.02
19,GTTATCGGTT,0.98
20,GTTATCGTGT,0.972
21,GTTATCTTCT,1.01
22,GTTATTTTCA,0.985
23,GTTCAAAACT,1.03
24,GTTCAATGAC,1.01
25,GTTCAATTA,0.98

row,Sequence,switch fluorescence ratio
1,GTTCACCCGA,1.02
2,GTTCACGATT,0.971
3,GTTCACTTTA,1.04
4,GTTCATTGAT,0.992
5,GTTCCAGATG,1
6,GTTCCCCGCG,4.33
7,GTTCCGGACT,0.986
8,GTTCCGGTTA,0.999
9,GTTCGACACG,0.986
10,GTTCGAGCTC,1.05
11,GTTCGCATCG,1.02
12,GTTCGCGACC,1
13,GTTCGGCTGT,0.963
14,GTTCGTACAC,0.994
15,GTTCGTCCGG,1.05
16,GTTCGTTAAT,1.01
17,GTTCGTTATT,0.984
18,GTTCTACGAA,0.994
19,GTTCTACTGT,0.984
20,GTTCTATAAG,1.02
21,GTTCTATTGA,0.996
22,GTTCTTAGAC,0.954
23,GTTGAAAACC,1.01
24,GTTGAACTCT,0.979
25,GTTGACATAG,0.992

row,Sequence,switch fluorescence ratio
1,GTTGAGAAT,0.998
2,GTTGAGGTTT,0.954
3,GTTGATAATT,0.976
4,GTTGATAGGC,0.995
5,GTTGATGATC,0.971
6,GTTGCACTGA,1.03
7,GTTGCAGC,1.12
8,GTTGCGATAG,2.44
9,GTTGCGCAAA,1.03
10,GTTGCGTTGG,0.994
11,GTTGCTAATC,1.05
12,GTTGCTATAT,1.03
13,GTTGCTTGCT,0.998
14,GTTGGAAAAC,1.02
15,GTTGGCGATT,1.03
16,GTTGGGAA,0.964
17,GTTGGGAGAA,0.992
18,GTTGGGTCCA,0.986
19,GTTGGTCCGG,0.986
20,GTTGGTTGAA,1.02
21,GTTGTAAGAG,1.02
22,GTTGTAGCAT,1
23,GTTGTAGGAC,1.02
24,GTTGTCCGCC,1.02
25,GTTGTCGTT,0.978

row,Sequence,switch fluorescence ratio
1,GTTGTGTCTC,1
2,GTTGTTTAAG,0.984
3,GTTGTTTTCT,1
4,GTTGTTTTGG,1.01
5,GTTTAAAAGT,0.998
6,GTTTAGGTAG,1.03
7,GTTTAGGTGA,0.988
8,GTTTAGTGT,1.02
9,GTTTATAAGC,0.993
10,GTTTATATT,1.03
11,GTTTATCGAT,1
12,GTTTATCTTG,1.04
13,GTTTATGATC,1.02
14,GTTTCAAAGA,1.03
15,GTTTCATGTA,0.974
16,GTTTCGCTTT,0.976
17,GTTTCGTGTC,1.02
18,GTTTCGTGTT,1.02
19,GTTTGAAAAT,0.971
20,GTTTGAAGGC,1.07
21,GTTTGAATAA,0.983
22,GTTTGAATGG,1.01
23,GTTTGACACG,1.04
24,GTTTGAGTGA,1.01
25,GTTTGATGAG,0.976

row,Sequence,switch fluorescence ratio
1,GTTTGGCAGG,0.984
2,GTTTGTAGAA,1.02
3,GTTTTATTTC,0.978
4,GTTTTCAAAT,1.05
5,GTTTTCAGAG,0.997
6,GTTTTCAGT,0.982
7,GTTTTCCTCG,2.12
8,GTTTTGAGGC,1.03
9,GTTTTGAGTA,1.01
10,GTTTTGCACG,1.01
11,GTTTTGCCCA,1
12,GTTTTGCGCA,1
13,GTTTTTAAAG,0.996
14,GTTTTTACAT,0.998
15,GTTTTTCGAG,1.01
16,GTTTTTCTCA,0.979
17,GTTTTTGTTG,1.02
18,TAAAAACCAG,1.08
19,TAAAAATAAG,1.03
20,TAAAAGAATG,0.992
21,TAAAAGTACC,1.09
22,TAAAAGTCAT,0.996
23,TAAAAGTTCG,0.939
24,TAAAATATA,0.998
25,TAAAATCGTT,0.989
